Out of some 360,000 compounds screened, about 520 (0.14%) were called active. The shares of active, inactive and inconclusive entries below differ from those in the screen. Calls come from the whole dose curve; as a rule, active = well fitted inhibition curve with a large enough effect; inconclusive = small, poorly fitted or top-dose-only effect; inactive = no such curve, though single readings can be large or run the other way. Potencies beside an inconclusive call are fits to weak or partial responses and may not hold up.
Each compound was assayed against Rap guanine nucleotide exchange factor 3 (Homo sapiens) (UniProt O95398) (assay: qHTS for Antagonist of cAMP-regulated guanine nucleotide exchange factor 3 (EPAC1): primary screen). Settings: EPAC1 GEF assay, Rap1b-BODIPY-GDP exchange fluorescence; activity change, negative = inhibition: at 115 µM (top of the series).
Chain of UniProt O95398 (O95398 whole entry, looked up): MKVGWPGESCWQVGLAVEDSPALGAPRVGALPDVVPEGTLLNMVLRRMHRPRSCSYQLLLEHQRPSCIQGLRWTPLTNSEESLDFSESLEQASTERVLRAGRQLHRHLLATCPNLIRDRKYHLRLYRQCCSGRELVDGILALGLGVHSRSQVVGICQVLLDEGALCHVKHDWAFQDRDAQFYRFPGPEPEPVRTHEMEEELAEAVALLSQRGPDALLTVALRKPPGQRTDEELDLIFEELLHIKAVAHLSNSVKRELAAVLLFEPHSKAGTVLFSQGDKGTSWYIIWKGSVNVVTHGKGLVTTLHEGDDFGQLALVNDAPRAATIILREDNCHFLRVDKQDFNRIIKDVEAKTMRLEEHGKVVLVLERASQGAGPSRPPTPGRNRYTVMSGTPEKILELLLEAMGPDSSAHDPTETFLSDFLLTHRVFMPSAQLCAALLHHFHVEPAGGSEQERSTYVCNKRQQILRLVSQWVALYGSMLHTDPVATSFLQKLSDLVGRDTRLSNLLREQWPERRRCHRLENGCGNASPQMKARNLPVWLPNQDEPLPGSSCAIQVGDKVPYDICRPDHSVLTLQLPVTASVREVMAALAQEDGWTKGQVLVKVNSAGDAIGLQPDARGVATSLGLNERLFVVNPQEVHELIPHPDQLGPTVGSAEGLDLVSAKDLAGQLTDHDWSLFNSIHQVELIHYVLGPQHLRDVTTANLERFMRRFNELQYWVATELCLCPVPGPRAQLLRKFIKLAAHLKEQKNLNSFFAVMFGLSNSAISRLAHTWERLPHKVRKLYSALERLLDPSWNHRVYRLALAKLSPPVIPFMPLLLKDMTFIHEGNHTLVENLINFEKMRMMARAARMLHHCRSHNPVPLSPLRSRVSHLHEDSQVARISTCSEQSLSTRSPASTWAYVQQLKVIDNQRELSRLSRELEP
Note: nearly all actives have a fitted effect of over 50% in size.
Potency is the fitted concentration of half-maximal effect; tags give direction and shape of the fitted curve.
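Throughout, for activity change, negative = inhibition: plate controls were vehicle for no effect and positive control for full effect.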

Activity change, negative = inhibition, inconclusive:
NNC(=O)CN(CCc1ccccc1)S(=O)(=O)c1ccc(Cl)cc1 -15% [inhibitor], O=C(CN1C(=O)C(=O)N(C2CCCC2)C1=O)Nc1ccc(N2CCOCC2)cc1 10.5% [inhibitor]

Activity change, negative = inhibition, inactive:
Cc1ccc(NC(=O)c2ncn(CCCN3CCN(Cc4cccc5ccccc45)CC3)n2)cc1C 2.86%, Cc1ccc(NC(=O)C(C)SCC(=O)Nc2ccc(F)cc2)cc1S(=O)(=O)N1CCOCC1 (centres undefined) 4.54%, CCOC(=O)/C(C)=C1\NC(C)(C)Cc2ccccc21 -9.94%, CCc1cc2c(N=Nc3c(O)[nH]c4ccccc34)ncnc2s1 12.2%, CC(C)(C)C1C/C(=C/c2ccccn2)C(=O)/C(=C/c2ccccn2)C1 (centres undefined) -17.1%, Cc1c(C(=O)Nc2cccc([N+](=O)[O-])c2)cnn1-c1ccccc1 -25.1%, CCCC(=O)N1CCN(c2ccc(NC(=S)NC(=O)c3cccc(C)c3)cc2)CC1 -14.3%, CCOC(=O)Nc1ccc2c(c1)C(=NNC(=S)NC)c1ccccc1-2 -11.9%, c1ccc2c3c([nH]c2c1)C(C1CCCCC1)N(Cc1ncc[nH]1)CC3 (centres undefined) 10.8%, CC(C)CC(=O)NNC(=O)c1ccc(Cl)cc1 -29.5%, Cn1c(COc2ccc(Br)cc2)nnc1SC1CCc2ccccc2C1=O (centres undefined) -14%, Nc1nonc1C(=O)N/N=C/c1ccc(Br)o1 11%, COc1cccc(NC(=S)N(CCc2c(C)[nH]c3ccc(C)cc23)Cc2cccs2)c1 -19.9%

Potency, inconclusive:
COc1ccc(Cl)cc1NC(=S)Nc1cccc(C)c1 31.6 µM [inhibitor, single point], Cc1ccc(NC(=O)CSc2nncs2)cc1Cl 70.8 µM [inhibitor, single point], O=C(NCCCc1ccccc1)c1ccc(CS(=O)Cc2ccc(Cl)cc2)o1 (centres undefined) 100 µM [inhibitor, single point], CCOc1ccc([C@@H]2CC=C(C(=O)O)[C@H](c3ccc(Cl)cc3)N2S(=O)(=O)c2ccc(C)cc2)cc1 79.4 µM [inhibitor, partial curve], O=S(=O)(/N=C(/Nc1ccccn1)c1ccccc1)c1ccc(F)cc1 89.1 µM [inhibitor, single point], O=C1CCN(Cc2ccccc2)S(=O)(=O)c2ccc(C(F)(F)F)cc21 56.2 µM [inhibitor, partial curve, poor fit], COc1ccc(S(=O)(=O)N2CCN(C(=O)c3cc4c(s3)CCC4)CC2)cc1 50.1 µM [inhibitor, partial curve], CCC(=C/c1sc2ccc3ccccc3c2[n+]1C)/C=C1\Sc2ccc3ccccc3c2N1C 28.2 µM [inhibitor, partial curve, poor fit], CCOC(=O)c1nnc2c(Br)c(-c3ccccc3)nn2c1C 89.1 µM [inhibitor, single point], Cc1csc(SCC(=O)NC2CCCC2)n1 79.4 µM [inhibitor, single point], CCCOc1ccc(CN2CCOCC2)cc1OC 3.55 µM [inhibitor, full curve], COc1ccccc1C(=O)Nc1ccccc1C(=O)Nc1ccccc1 100 µM [inhibitor, single point], C#CC(C)(C)NC(=S)NC1CC2C=CC1C2 (centres undefined) 39.8 µM [inhibitor, partial curve], CCCOC(=O)c1ccc(NC(=O)CN(C)Cc2cccs2)cc1 100 µM [inhibitor, single point], CCOC(=O)CNC(=O)c1ccc(Cl)s1 89.1 µM [inhibitor, single point], O=C(CSc1nnc(Nc2ccccc2F)s1)Nc1cccc(S(=O)(=O)N2CCCCC2)c1 56.2 µM [inhibitor, partial curve, poor fit], O=C1CCc2cc(S(=O)(=O)NC(Cc3ccccc3)C(=O)N3CCN(c4ccccn4)CC3)ccc2N1 (centres undefined) 112 µM [inhibitor, partial curve, poor fit], O=C(CCC(C(=O)O)N1C(=O)c2ccccc2C1=O)Nc1ccccc1 (centres undefined) 17.8 µM [inhibitor, partial curve], CN(C(=O)CCN1C(=O)/C(=C/c2ccccc2)SC1=S)C1CCS(=O)(=O)C1 (centres undefined) 10 µM [inhibitor, full curve], CCN1CCN(C(=O)Cn2ncc3c([nH]c4ccccc43)c2=O)CC1 31.6 µM [inhibitor, full curve, poor fit], COc1ccccc1C(=O)NCCC(=O)Nc1cccc(S(=O)(=O)N2CCCC2)c1 3.55 µM [inhibitor, full curve, poor fit], CC1=C([N+](=O)[O-])C(c2ccccc2)C2=C(N1)c1ccccc1C2=O (centres undefined) 44.7 µM [inhibitor, full curve, poor fit], COc1ccccc1-n1cc(-c2ccc(Cl)cc2)[nH]c1=O 8.91 µM [inhibitor, full curve, poor fit], O=C(CCNC(=O)c1ccco1)NC(Cc1c[nH]c2ccccc12)C(=O)O (centres undefined) 100 µM [inhibitor, single point], CN1CCN(c2ccc(S(=O)(=O)Nc3ccccc3)cc2[N+](=O)[O-])CC1 100 µM [inhibitor, single point], COc1ccc(/C=c2\s/c(=C/C(=O)c3ccc(C)cc3)[nH]c2=O)c(OC)c1 79.4 µM [inhibitor, partial curve], Cc1ccc(OCC(=O)Nc2ccccc2N2CCCC2)c(C)c1 28.2 µM [inhibitor, partial curve], COc1ccc(NS(=O)(=O)c2cc(C(=O)Nc3ccccc3C(=O)O)ccc2C)cc1 50.1 µM [inhibitor, partial curve], CCCc1cc2c(-c3ccccc3)cc(=O)oc2cc1OCc1ccc(C(=O)O)o1 50.1 µM [inhibitor, partial curve], COc1ccc(CN(C)C(=O)c2cccc(NS(=O)(=O)c3ccccc3)c2)c(OC)c1 39.8 µM [inhibitor, single point], O=C(Nc1cc(C(F)(F)F)ccc1Cl)c1ccc(NC(=O)C(F)(F)F)cc1 2.82 µM [inhibitor, full curve, poor fit], O=C(NC1CCCCC1)c1cc(S(=O)(=O)N2CCOCC2)c(Cl)cc1Cl 100 µM [inhibitor, single point], O=C(O)CSc1cc(C(=O)c2ccccc2O)cn2c(=O)c3c4c(sc3nc12)CCCC4 17.8 µM [inhibitor, full curve], O=C(COC(=O)C1CCN(S(=O)(=O)c2ccc3c(c2)OCCO3)CC1)Nc1ccccc1OC(F)F 31.6 µM [inhibitor, full curve, poor fit], CCn1c(SCC(=O)NC2CCCC2)nc2c1c(=O)n(C)c(=O)n2C 100 µM [inhibitor, single point], O=[N+]([O-])c1cc(S(=O)(=O)C(F)(F)F)ccc1Sc1nc2ccccc2s1 56.2 µM [inhibitor, partial curve, poor fit], Cc1ccc(Cl)cc1N1CCN(C(=O)Cc2c(C(=O)O)[nH]c3ccc(Cl)cc23)CC1 56.2 µM [inhibitor, partial curve], COc1ccccc1CNC(=O)c1oc2ccccc2c1C 100 µM [inhibitor, single point], CN1/C(=C\C(=O)COC(=O)c2ccc(O)c(O)c2)C(C)(C)c2ccccc21 17.8 µM [inhibitor, full curve], CC(=O)Nc1ccc(NC(=O)C(C)OC(=O)CCC2CCCCC2)cc1 (centres undefined) 100 µM [inhibitor, single point], COc1cc(N(C)C)c([N+](=O)[O-])cc1C(=O)N1CCOCC1 100 µM [inhibitor, single point], Nc1c(N(Cc2ccco2)C(=O)COc2ccccc2F)c(=O)[nH]c(=O)n1Cc1ccccc1 100 µM [inhibitor, partial curve, poor fit], COc1cccc(-c2coc3c(C)c4oc(=O)c(CCC(=O)O)c(C)c4cc23)c1 79.4 µM [inhibitor, partial curve], O=C(Nc1ccccc1Br)C1CC(=O)N(c2ccc3c4c(cccc24)CC3)C1 (centres undefined) 2.82 µM [inhibitor, full curve, poor fit], Cc1ccccc1-c1n[nH]c(=S)n1C 100 µM [inhibitor, single point], CCOc1ccc(Nc2cc3n(c(=O)n2)CCc2cc(OC)c(OC)cc2-3)cc1 44.7 µM [inhibitor, partial curve], O=C1C=C(Nc2ccccc2)C(=O)c2ccccc21 100 µM [inhibitor, single point], CSc1nccc(Oc2cccc(C#N)c2)n1 70.8 µM [inhibitor, single point], C[C@@]12CC(=O)NC1N(C(=O)c1cccc(C(F)(F)F)c1)C(c1ccccc1OC(=O)c1cccc(C(F)(F)F)c1)C2 (some centres undefined) 50.1 µM [inhibitor, partial curve]

Source: PubChem BioAssay AID720709 (National Center for Advancing Translational Sciences (NCATS), 2013)
